Reference: US11365205B2 (Aurigene Discovery Technologies Limited, priority 2018, dated 2022)

Molecular target: PRMT5/MEP50 Complex (Homo sapiens (Human), UniProt O14744)
Assay: PRMT5 inhibition based on TR-FRET assay
Format: biochemical
Conditions: 32 nM PRMT5:MEP50, 50 nM Histone-H4 peptide, 1 μM SAM
Description: PRMT5 Inhibition Based on TR-FRET Assay:
Protein arginine methyltransferase 5 (PRMT5) is a type II arginine methyltransferase that catalyze mono- and symmetric demethylation on arginine residues of histone or non-histone proteins in presence of S-adenosylmethionine (AdoMet or SAM) a cofactor responsible for donating the methyl group. PRMT5 is reported to be overexpressed in several human cancers. To identify compounds that inhibit the PRMT5 and decrease its activity, a TR-FRET based assay has been established. Time-resolved fluorescence resonance energy transfer (TR-FRET) HTS assays are homogeneous proximity assays where the interaction of two dye-labeled binding partners is detected by the energy transfer between a donor and an acceptor dye and the subsequent light emission by the acceptor dye. PRMT5 catalyzes Histone H4 peptide which is biotin tagged to the Lysine amino acid at carboxyl end, in presence of S-adenosyl-1-methionine (SAM) to methylate the peptide. The antibody specific to mono methylated H4 peptide (H4R3) with Ig conjugate binds to the methylated peptide, indirectly binding to the Europium lanthanide. […]
The compound dilutions were prepared as 7.5% DMSO stock solutions in assay buffer. […] The plates were then read on Victor-3 with Excitation at 340 nm and Emissions collected at 615 and 665 nm in TR-FRET protocol. […]

UniProt O14744, sequence (O14744 whole entry): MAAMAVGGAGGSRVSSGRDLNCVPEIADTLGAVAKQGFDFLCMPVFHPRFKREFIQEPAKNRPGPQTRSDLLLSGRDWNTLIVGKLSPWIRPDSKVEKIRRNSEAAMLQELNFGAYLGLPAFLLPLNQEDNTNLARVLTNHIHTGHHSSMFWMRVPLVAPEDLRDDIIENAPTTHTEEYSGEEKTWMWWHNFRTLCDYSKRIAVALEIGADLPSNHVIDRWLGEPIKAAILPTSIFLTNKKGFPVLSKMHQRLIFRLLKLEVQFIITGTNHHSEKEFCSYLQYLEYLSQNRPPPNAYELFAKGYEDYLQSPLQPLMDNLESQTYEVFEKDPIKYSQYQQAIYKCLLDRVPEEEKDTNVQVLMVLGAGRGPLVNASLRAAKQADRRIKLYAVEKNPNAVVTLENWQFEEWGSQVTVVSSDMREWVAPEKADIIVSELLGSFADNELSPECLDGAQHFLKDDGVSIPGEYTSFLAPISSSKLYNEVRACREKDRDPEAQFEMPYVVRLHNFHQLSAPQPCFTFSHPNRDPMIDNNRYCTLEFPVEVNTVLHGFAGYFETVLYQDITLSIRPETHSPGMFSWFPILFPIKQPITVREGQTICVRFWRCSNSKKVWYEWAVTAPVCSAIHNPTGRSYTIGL
UniProt O14744, sequence (Q9BQA1 whole entry partner): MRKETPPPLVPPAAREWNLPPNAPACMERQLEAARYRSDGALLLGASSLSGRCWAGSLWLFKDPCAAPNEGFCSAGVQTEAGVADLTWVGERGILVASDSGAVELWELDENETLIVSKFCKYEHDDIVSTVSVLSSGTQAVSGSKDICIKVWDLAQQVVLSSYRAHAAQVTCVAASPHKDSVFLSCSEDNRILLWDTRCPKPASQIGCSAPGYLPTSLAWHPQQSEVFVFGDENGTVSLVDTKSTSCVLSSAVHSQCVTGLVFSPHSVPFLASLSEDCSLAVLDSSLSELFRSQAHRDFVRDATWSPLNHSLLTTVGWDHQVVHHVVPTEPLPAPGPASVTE

IC50 [nM]	Structure (SMILES)
2300	Cn1cnc2ccc(CN3CCN(CC(O)CN4CCc5ccccc5C4)C3=O)cc21 (single isomer, unassigned) [Example 1b, 1-(3-(3,4-Dihydroisoquinolin-2(1H)-yl)-2-hydroxypropyl)-3-((1-methyl-1H-benzo[d]imidazol-6-yl)methyl)imidazolidin-2-one]
980	Cn1cc(CN2C(=O)N(CC(O)CN3CCc4ccccc4C3)C(C)(C)C2=O)ccc1=O (centres unmarked) [Example 78, 1-(3-(3,4-Dihydroisoquinolin-2(1H)-yl)-2-hydroxypropyl)-5,5-dimethyl-3-((1-methyl-6-oxo-1,6-dihydropyridin-3-yl)methyl)imidazolidine-2,4-dione]
